# Results: the supplement of paper PMC10338343
# ± gives the standard deviation. The entries are a selection whose mix differs from that of the whole data set.
# System: MIWI (PIWIL1) piRISC loaded with L1MC piRNA (30 nt)
# Test: pre-steady-state target cleavage rate (min^-1); MIWI and MILI are mouse PIWI proteins and EfPiwi is from a freshwater sponge; tags in brackets are library labels; higher = faster piRNA-guided slicing of the target
# Conditions: guide: L1MC piRNA 5'p-UAACUAAAUACUAUGCAAGCUGUAGGUCCU
# Outline: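 Three pooled Cleave-'n-Seq trials supplied the data, with k3 capped at 0.0001 min^-1. In each, […] transcribed, DNA-blocked target RNA library and 1 nM active affinity-purified piRISC with one synthetic guide reacted in HEPES–potassium acetate buffer at 33 °C for 0–8 or 0–960 min, with or without 500 nM GTSF1 partner protein. Uncleaved targets were sequenced and normalised to depth and to weakly complementary targets. A burst-and-steady-state fit provided the pre-steady-state cleavage rate.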
# [1] = auxiliary factor: 500 nM mouse GTSF1
# [2] = auxiliary factor: none (no GTSF1)
# 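Note: 1 nM active piRISC with 0.1 nM target library at 33 °C single turnover.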
Sequence,pre-steady-state target cleavage rate [1],pre-steady-state target cleavage rate [2]
UCCUGGAUGUCCUUGCAUAGUAUUUAGAUUA,0.0221 ± 0.0073,0.00391 ± 0.0026
AGGACCUACAGCUUGCAAAGUAUUUAGUAA,0.747 ± 0.049,0.0251 ± 0.0052
AGGACCUACAGCAUGCAUAGUAAUUAGUUA,0.788 ± 0.053,0.0148 ± 0.0027
UCCUGGAUCAGCUAGCAUAGUUUUUAGUUA,0.158 ± 0.013,0.0151 ± 0.0043
UCCUGCUACAGCUUGCAUAGUUAUUUAGUUA,0.073 ± 0.013,0.00386 ± 0.0025
UCCUCCUACAGCUUGCAUAGUAUUAUCUUA,0.256 ± 0.037,0.0035 ± 0.0025
UGGACCUAGAGCUUGCAUAGUAUUUACUUA,0.192 ± 0.027,0.025 ± 0.004
UCCACCUAGAGCUUGCAUAGUUUUUAGUUA,0.22 ± 0.03,0.0119 ± 0.0015
UCCACGUUCAGCUUGCAUAGUAUUUAGUUA,1.42 ± 0.057,0.0658 ± 0.011
AGGACCUACAGCUUGCAUAGUAUUUACAAA,0.403 ± 0.055,0.00917 ± 0.0037
UCCUCCUACAGCCUGCAUAGUAUUUAGUUA,1.18 ± 0.038,0.056 ± 0.0094
UCCUGGUACAGCUUGCAUAGUAUUUAAGUUA,0.551 ± 0.071,0.0258 ± 0.0076
UGGAGCUACAGCUUGCAUAGUAAUUAGUUA,0.857 ± 0.043,0.0297 ± 0.0065
UGGAGCUACAGCUUGCAAAGUAUUUAGUUA,1.27 ± 0.062,0.0471 ± 0.0092
UCCUCCUACAGCUUGGAUAGUAUUUAGUUA,1.44 ± 0.045,0.0511 ± 0.0092
AGGACCUACAGCUAGCAUAGUAUUUAGAAA,0.571 ± 0.066,0.00411 ± 0.0025
UCCUGGAUGUGCUUGCAUUGUAUUUUGUUA,0.0161 ± 0.0055,0.00636 ± 0.0027
UCCUGGAUCAGCUCUGCAUAGUAUUUAGUUA,0.985 ± 0.054,0.0138 ± 0.0041
UCCUGGUACAGCUUGCGUAGUAUUUAGUUA,0.728 ± 0.061,0.0237 ± 0.0052
UCCUGGAUCAGCUUGCCUAGUAUUUAGUUA,0.899 ± 0.037,0.0222 ± 0.0046
